Laboratory results: PubChem BioAssay AID588342 (National Center for Advancing Translational Sciences (NCATS), 2011)
Hit rate of the full screen: of about 360,000 compounds, about 25,000 (6.9%) were called active. The inconclusive results got no clear call from the source; some entries with a clear call stand among them for comparison. The call rests on the fitted dose curve; in most records, active means well fitted inhibition curve with a large enough effect; inconclusive means small, poorly fitted or top-dose-only effect; inactive means flat fitted curve, though single readings scatter. Where the call is inconclusive, the potency comes from a doubtful curve fit.

Biological target: Luciferin 4-monooxygenase (Photinus pyralis) (UniProt P08659)
Sequence of UniProt P08659 (P08659 whole entry, looked up): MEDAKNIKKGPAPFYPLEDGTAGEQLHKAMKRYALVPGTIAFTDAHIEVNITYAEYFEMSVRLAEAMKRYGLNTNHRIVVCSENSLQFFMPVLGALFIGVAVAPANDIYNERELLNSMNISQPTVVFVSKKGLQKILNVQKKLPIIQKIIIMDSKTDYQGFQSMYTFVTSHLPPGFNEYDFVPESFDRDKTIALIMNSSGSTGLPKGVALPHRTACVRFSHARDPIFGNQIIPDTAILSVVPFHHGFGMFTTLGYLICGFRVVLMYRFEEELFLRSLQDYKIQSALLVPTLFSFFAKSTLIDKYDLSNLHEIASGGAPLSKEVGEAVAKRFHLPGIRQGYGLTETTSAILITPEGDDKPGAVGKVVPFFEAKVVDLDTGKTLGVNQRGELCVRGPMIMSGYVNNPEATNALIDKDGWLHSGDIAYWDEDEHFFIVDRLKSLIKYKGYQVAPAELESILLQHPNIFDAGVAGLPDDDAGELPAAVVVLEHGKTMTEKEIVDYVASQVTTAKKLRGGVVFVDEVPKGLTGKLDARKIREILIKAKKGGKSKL
Test: qHTS profiling assay for firefly luciferase inhibitor/activator using purifed enzyme and Km concentrations of substrates (counterscreen for miR-21 project); further: nearly all actives have a fitted effect of over 55% in size;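 on activity change, negative = inhibition: plate controls were vehicle for no effect and reference inhibitor for full effect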
Conditions: purified FLuc, luminescence inhibition; activity change, negative = inhibition: at 57.5 µM (top of the series)
Procedure, shortened: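 Purified P. pyralis luciferase, 10 nM final, with Km-level 10 uM D-luciferin and 10 uM ATP in 50 mM Tris acetate pH 7.5, 10 mM Mg acetate, 0.01% Tween-20, 0.05% BSA; 6-point qHTS titration about 60 µM downward; luminescence read.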
Potency means the concentration at half of the fitted maximal effect; tags describe the fitted curve by direction and shape.

Structure (SMILES)	Potency	activity change, negative = inhibition
CCOc1ccccc1C(=O)NCC(=O)OCC(=O)c1ccc2c(c1)OCCO2	inconclusive: 19 µM [inhibitor, partial curve]	
CCN(C(=O)CSc1nnc(-c2c[nH]c3ccccc23)o1)C1CCS(=O)(=O)C1 (centres undefined)		inactive: -13.9%
O=C(N/N=C/c1ccc(OC(=O)c2cccs2)cc1)c1ccccn1	active: 1.51 µM	
COCn1c(-c2cccc(Br)c2)nc2ccccc21	active: 16.9 µM	
O=C(O)CNC(=O)c1ccc(NC(=O)/C(=C/c2ccccc2)NC(=O)c2ccccc2)cc1	inconclusive: 16.9 µM [inhibitor, partial curve, poor fit]	
CCN(CC)CC#CCC(C)(c1ccccc1)c1ccccc1		inactive: -1.15%
NC(=O)/C(=N\OC(=O)c1ccco1)c1nc(-c2ccc(Br)cc2)cs1	inconclusive: 10.7 µM [inhibitor, partial curve, poor fit]	
Cc1ccc(NC(=O)COc2ccc(Cl)cc2Cl)cc1S(=O)(=O)N1CCOCC1	inconclusive: 2.69 µM [inhibitor, partial curve]	
CCCC(=O)Nc1ccc2nc(SCC(=O)N3CCOCC3)sc2c1	inconclusive: 37.9 µM [inhibitor, partial curve, poor fit]	
COc1ccc(NC(=S)NC(=O)/C=C/c2ccccc2)cc1		inactive: 6.6%
CCOC(=O)Cc1c(C)nc2cc(-c3ccc(C)cc3)[nH]n2c1=O	inconclusive: 21.3 µM [inhibitor, single point]	
CS(=O)(=O)c1ccc(-c2cn3cc(C(=O)O)ccc3n2)cc1	active: 2.69 µM	
CN1CCc2c(sc(/N=C/c3c[nH]c4ccccc34)c2C(N)=O)C1	inconclusive: 37.9 µM [inhibitor, single point]	
CC(=O)c1ccc(N2CCN(CC3CCCCC3)CC2)cc1		inactive: -0.888%
CCc1cc(=O)[nH]c(SCc2nc(-c3ccc(C(F)(F)F)cc3)no2)n1	inconclusive: 10.7 µM [inhibitor, partial curve, poor fit]	
COc1ccc(N2CCN(C(c3ccc(F)cc3)c3sc4nc(-c5ccco5)nn4c3O)CC2)cc1 (centres undefined)	inconclusive: 15.1 µM [inhibitor, partial curve, poor fit]	
CC(=O)N1CCCC1c1nc2ccccc2n1Cc1ccccc1F (centres undefined)		inactive: -11.4%
CCOc1cccc(=O)c2c(C)n(Cc3ccccc3)c(C)c12	inconclusive: 26.9 µM [inhibitor, partial curve, poor fit]	
COc1ccc(C2c3[nH]c4ccccc4c3CCN2C(=O)c2ccc(=O)n(C)n2)c(F)c1 (centres undefined)	inconclusive: 21.3 µM [inhibitor, partial curve, poor fit]	
COc1ccc(-c2ccc(OC(=O)NC3CCS(=O)(=O)C3)cc2)cc1 (centres undefined)	inconclusive: 23.9 µM [inhibitor, partial curve]	
Cc1cc(C)cc(COc2ccc3c(C)c(CC(=O)O)c(=O)oc3c2C)c1	inconclusive: 21.3 µM [inhibitor, partial curve, poor fit]	
Cc1cc(Cl)ccc1OCC(=O)N(Cc1ccc(N(C)C)cc1)C1CCS(=O)(=O)C1 (centres undefined)		inactive: -12.5%
Cc1cc(NC(=O)c2ccc(Cl)cc2)c(C(C)C)cc1O	inconclusive: 23.9 µM [inhibitor, partial curve, poor fit]	

Structure (SMILES)	Potency	activity change, negative = inhibition
CCOC(=O)c1cc(-c2ccc(C)cc2)n(CC(=O)Nc2ccc(OC)cc2OC)c1C		inactive: -1.54%
Cc1ccc(/C=C/C(=O)Nc2cccc3cccnc23)o1	active: 16.9 µM	
Cc1ccc(NC(=O)CSc2nccn2C2CCCC2)cc1Cl	inconclusive: 26.9 µM [inhibitor, partial curve, poor fit]	
CN(C)S(=O)(=O)c1cccc(NC(=O)c2ccc(N3CCOCC3)c([N+](=O)[O-])c2)c1	inconclusive: 19 µM [inhibitor, partial curve, poor fit]	
Cc1cc(N=NC(=O)c2ccccc2)ccc1O	inconclusive: 37.9 µM [inhibitor, partial curve, poor fit]	
CCNC(=O)c1cc2ccccc2o1	inconclusive: 37.9 µM [inhibitor, partial curve, poor fit]	
O=C(NCc1cc(F)cc(C(F)(F)F)c1)C1CCC(=O)N(C2CCCC2)C1 (centres undefined)	inconclusive: 37.9 µM [inhibitor, partial curve, poor fit]	
COc1cc(NC(=S)N2CCN(S(=O)(=O)c3ccc(C)cc3)CC2)cc(OC)c1		inactive: 0.174%
COc1c(S(=O)(=O)NCCCN2CCOCC2)ccc(Cl)c1Cl		inactive: -1.86%
COc1ccc(C(=O)NCc2nnc(SCC(=O)NC3CCCCC3)n2C)cc1	inconclusive: 37.9 µM [inhibitor, partial curve, poor fit]	
Cn1c(CCNC(=O)c2ccco2)nc2cc(NC(=O)c3ccco3)ccc21	active: 23.9 µM	
C/C(=N\Nc1nc(C)cc(-c2ccccc2)n1)c1ccc(O)cc1	active: 4.26 µM	
Cc1ccc(-n2cnc3sc(C)c(C)c3c2=O)cc1	inconclusive: 5.36 µM [inhibitor, partial curve, poor fit]	
CSc1ccc(/C=C/C(=O)c2ccc(NC(=O)Cc3ccccc3)cc2)cc1	active: 12 µM	
Cc1coc2c1c(C)cc1oc(=O)c(CC(=O)NCCCN3CCCC3=O)c(C)c12	inconclusive: 37.9 µM [inhibitor, partial curve, poor fit]	
O=C1NC(=S)N/C1=C/c1cccc2ccccc12	inconclusive: 16.9 µM [inhibitor, partial curve]	
N#Cc1c(-c2ccccc2)cc2nc3ccccc3n2c1N	inconclusive: 2.69 µM [inhibitor, full curve]	
COc1cc(NC(=O)c2cccc(C)c2)ccc1NC(=O)c1cc2ccccc2o1		inactive: -18.9%
OCCCNc1ncnc2sc(-c3ccccc3)cc12	inconclusive: 30.1 µM [inhibitor, partial curve, poor fit]	
COc1cc(OC)c(NC(=O)CNC(=O)Cn2ccc3ccccc3c2=O)cc1Cl		inactive: 0.907%
CCCc1nc2scc(-c3ccccc3)c2c(=O)n1N	inconclusive: 33.8 µM [inhibitor, partial curve, poor fit]	
COc1ccc(CNC(=O)c2sc3nc4n(c(=O)c3c2C)CCC4)cc1	inconclusive: 19 µM [inhibitor, partial curve]	
Cn1cc(C(=O)Nc2ccccn2)c(=O)c2ccccc21	active: 15.1 µM	

Structure (SMILES)	Potency	activity change, negative = inhibition
Nc1nnc(CSc2ccc(Cl)cc2)s1	inconclusive: 30.1 µM [inhibitor, partial curve, poor fit]	
OCCSc1ncnc2c1oc1ccccc12	inconclusive: 30.1 µM [inhibitor, partial curve, poor fit]	
Cc1ccc(C2=NNC3(CCOC(C)(C)C3)S2)cc1 (centres undefined)	inconclusive: 26.9 µM [inhibitor, single point]	
Cc1cc(C(=O)COc2ccc3ccc(=O)oc3c2)c(C)n1C	inconclusive: 26.9 µM [inhibitor, partial curve]	
COc1ccccc1-n1c(=S)[nH]c2c(sc(=S)n2-c2ccccc2C)c1=O	inconclusive: 15.1 µM [inhibitor, partial curve]	
COc1cc(-c2nc3ccccn3c2/N=C/c2ccc(F)cc2)ccc1O	inconclusive: 30.1 µM [inhibitor, partial curve, poor fit]	
C=CCn1c(NCc2cc(C)ccc2O)nc2ccccc21	inconclusive: 37.9 µM [inhibitor, single point]	
Cc1cc(C)c2cc(C#N)c(SCC(=O)NCc3ccco3)nc2c1	inconclusive: 23.9 µM [inhibitor, partial curve, poor fit]	
O=C(CCS(=O)(=O)c1cc(Br)cc2c1N(C(=O)C1CC1)CC2)N1CCN(c2cccc(C(F)(F)F)c2)CC1		inactive: -12.3%
O=C(O)CCC(=O)Nc1ccc(SSc2ccc(NC(=O)CCC(=O)O)cc2)cc1	inconclusive: 23.9 µM [inhibitor, single point]	
O=C(N/N=C/c1cccs1)c1[nH]ncc1Br	active: 21.3 µM	
O=C(CCc1ccccc1)Nc1ccc(N2CCCCC2)cc1	inconclusive: 3.38 µM [inhibitor, partial curve, poor fit]	
CC(OC(=O)CCN=C1NS(=O)(=O)c2ccccc21)C(=O)N(C)C1CCCCC1 (centres undefined)		inactive: -9.14%
CC(=O)Nc1ccc(S(=O)(=O)N(C)CC(=O)OCC(=O)N2CCCC2=O)cc1		inactive: -0.759%
Cc1ccc(-c2nn(C)c(=O)c3ccccc23)cc1CNC(=O)c1ccccc1		inactive: 2.2%
COc1ccccc1/C=N/N1C(=O)C(CC(=O)Nc2ccc([N+](=O)[O-])cc2OC)SC1=Nc1cccc(C)c1C (centres undefined)		inactive: -0.207%
Clc1ccc(Cc2noc(-c3cccs3)n2)cc1	active: 13.5 µM	
Fc1ccc2nc(Nc3nc4cc5c(cc4s3)OCCO5)sc2c1	inconclusive: 4.26 µM [inhibitor, partial curve, poor fit]	
COC(=O)c1ccccc1NC(=O)NCc1ccccc1	inconclusive: 19 µM [inhibitor, partial curve]	
CCOC(=O)N1CCN(C(=O)Cn2nc(C)n3nc(-c4ccc(OC)cc4)cc3c2=O)CC1	inconclusive: 7.57 µM [inhibitor, partial curve, poor fit]	
C/C(=N\Nc1nncc2ccccc12)c1ccc(O)cc1	active: 0.953 µM	
C/C(=N\NC(=O)c1ccc(C)cc1)C1C(=O)c2ccccc2C1=O	inconclusive: 23.9 µM [inhibitor, single point]	
CC(C)c1ccc(NC(=O)N2CCC(c3nc4ccccc4o3)CC2)cc1	inconclusive: 37.9 µM [inhibitor, single point]	
